Source: PubChem BioAssay AID686979 (National Center for Advancing Translational Sciences (NCATS), 2013)
The campaign covered roughly 420,000 compounds. About 50,000 (12%) were called active. The inconclusive results got no clear call from the source; some entries with a clear call stand among them for comparison. The call rests on the fitted dose curve; in most records, active means well fitted inhibition curve with a large enough effect; inconclusive means small, poorly fitted or top-dose-only effect; inactive means flat fitted curve, though single readings scatter. No potency is given beside an inconclusive call; the fits are too rough.

Assay: qHTS for Inhibitors of human tyrosyl-DNA phosphodiesterase 1 (TDP1): qHTS in cells in presence of CPT; further: nearly all actives have a fitted effect of over 55% in size
Details: chicken DT40 Tdp1-/-;hTDP1 cells + 20 nM CPT, ATP luminescence, 48 h; activity change, negative = growth inhibition: at 46.2 µM (top of the series) unless noted
Procedure, shortened: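 Cell growth measured by CellTiter-Glo luminescence after a minimum 48 h, 37 C compound exposure with 20 nM CPT in Tdp1-knockout DT40 cells stably expressing hTDP1, seeded 400/well; qHTS titration format.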
On the % scale 0 is the no-effect control and ±100 the full control effect; potency means the concentration at half of the fitted maximal effect; tags describe the fitted curve by direction and shape.

Compound | activity change, negative = growth inhibition | Potency
CCOc1ccc(CNC(=O)NS(=O)(=O)c2ccc(OC)cc2)cc1 | inconclusive: -30.5% [inhibitor] | –
CCOc1cc(C)c(C(C)C)cc1S(=O)(=O)n1ccnc1CC | – | inconclusive [inhibitor, single point]
COc1ccc(NC(=O)c2cccc(S(=O)(=O)NCc3ccccc3)c2)cc1S(N)(=O)=O | inactive: 8.04% | –
CN(C)CCCn1cc(C2=C(c3c[nH]c4ccccc34)C(=O)NC2=O)c2ccccc21 | inactive: -122% | –
CC(=O)c1cccc(NC(=O)C2CCCN2S(=O)(=O)c2cccs2)c1 (stereo unspecified) | inactive: -1.81% | –
CCCNC(=O)c1c(NC(=O)c2ccc(C)cc2)sc2c1CCCCC2 | – | inconclusive [inhibitor, partial curve]
CC(C)c1ccc(Nc2ncccc2C#N)cc1 | – | inconclusive [inhibitor, single point]
O=C(CCC(=O)N(CC(=O)NC1CCCC1)C1CCCCC1)Nc1ccccn1 | inactive: -10.1% | –
COc1cc(S(=O)(=O)N2CCOCC2)ccc1NC(=O)c1cc2c(s1)CCC2 | – | active: 16.4 µM
CC1(c2ccc3noc(-c4ccc(F)cc4)c3c2)OCCO1 | – | inconclusive [inhibitor, single point]
O=C(CN(c1ccc(F)cc1)S(=O)(=O)c1ccccc1)NC1CC2CCC1C2 (stereo unspecified) | inactive: -8.11% | –
O=C(Nc1ccc(F)c(F)c1)C1CCN(S(=O)(=O)c2cccc3nonc23)CC1 | – | inconclusive [inhibitor, partial curve]
CN(C)c1ccc(/C=C/c2cc3ccccc3cn2)cc1 | – | active: 0.447 µM
COc1ccc(CN2CCN(c3cc(C)nc4c5c(C)cc(C)nc5nn34)CC2)cc1F | – | inconclusive [inhibitor, partial curve, poor fit]
CC(=O)Nc1ccc(S(=O)(=O)NCc2ccncc2)cc1 | – | active: 9.2 µM
CCSc1ncc(Cl)c(C(=O)N(Cc2ccc(C(C)(C)C)cc2)C2CCS(=O)(=O)C2)n1 (stereo unspecified) | – | inconclusive [inhibitor, single point]
CCCCCCCCN1C(=O)[C@H](CC(=O)NCCCCc2ccccc2)C[C@@]2(C(=O)OC)CC(C)(C)CC=C12 | – | active: 16.4 µM
O=C(O)Cn1cc(/C=C/[N+](=O)[O-])c2ccccc21 | inactive: -0.631% | –
CC(C)(C)c1cc(OC(=O)c2ccccc2F)ccc1O | – | inconclusive [inhibitor, single point]
Cc1c(C=O)c2ccccn2c1C(=O)c1cccs1 | – | inconclusive [inhibitor, single point]
O=S(=O)(NC1CCCC1)c1ccc(-n2cnnn2)cc1 | inactive: 13% | –
CCOC(=O)c1cccc(NC(=O)Nc2ccc3c(c2)N(C)C(=O)c2ccccc2S3)c1 | – | active: 20.6 µM
CN(C)c1ccc(/C=C/c2cc3ccccc3c[n+]2C)cc1 | – | active: 0.0891 µM

Compound | activity change, negative = growth inhibition | Potency
Cc1ccc(/C(O)=C2/C(=O)C(=O)N(CC(=O)O)C2c2ccc([N+](=O)[O-])cc2)cc1 (stereo unspecified) | inactive: 12.7% | –
COc1ccc(C(=O)N/C(=C\c2cn(S(=O)(=O)N(C)C)c3ccccc23)C(=O)N2CCN(C)CC2)cc1 | inactive: -19.1% | –
CC1CCCC(NC(=O)CN(C)S(=O)(=O)c2cccc3cccnc23)C1C (stereo unspecified) | – | inconclusive [inhibitor, single point]
COc1ccc(S(=O)(=O)Nc2ccc(F)cc2)cc1N(C)S(=O)(=O)c1ccc(Cl)cc1 | – | inconclusive [inhibitor, single point]
O=C(NNC(=O)c1cc(OCC(F)(F)F)ccc1OCC(F)(F)F)c1ccc(Cl)c(Cl)c1 | – | active: 23.1 µM
CC(C)c1cc2c(c(O)c1O)[C@@]13CCCC(C)(C)C1CC2OC3=O (stereo partly specified) | – | active: 5.17 µM
CCOC(=O)c1c(C)oc2nc(C)nc(NCCCN3CCN(c4cc(Cl)ccc4C)CC3)c12 | – | inconclusive [inhibitor, single point]
O=C(CCCN1CCC(O)(c2cccc(C(F)(F)F)c2)CC1)c1ccc(F)cc1 | – | inconclusive [inhibitor, single point]
N#CCC(=O)NCCCOC(=O)Nc1ccc(Cl)c(Cl)c1 | – | inconclusive [inhibitor, single point]
CN(C(=S)Nc1ccc(Oc2ccccc2)cc1)C1CCCCC1 | – | inconclusive [inhibitor, single point]
O=C(Cn1c(CN2CCCCC2)nc2ccccc2c1=O)Nc1ccccc1 | – | inconclusive [inhibitor, single point]
O=C(Nc1ccc(Cl)cc1)c1cccc(OC(=S)N2CCOCC2)c1 | – | inconclusive [inhibitor, single point]
CC1(C(=O)NS(=O)(=O)C2CC2)CCCN(C(=O)CSc2ccccc2)C1 (stereo unspecified) | – | inconclusive [inhibitor, single point]
COc1ccc(-c2nnc(SC(C)C(=O)Nc3nccs3)n2Cc2ccccc2)cc1OC (stereo unspecified) | – | inconclusive [inhibitor, single point]
COc1ccc(CCNC(=O)CCS(=O)(=O)c2ccc3c(c2)NC(=O)CS3)cc1OC | – | inconclusive [inhibitor, single point]
O=C(COC(=O)CSc1ccccc1)NCCNC(=O)COC(=O)CSc1ccccc1 | – | inconclusive [inhibitor, single point]
CCC1C(=O)NCCN1Cc1ccc2c(c1)CN(Cc1ccc(OC)cc1OC)CCO2 (stereo unspecified) | inactive: 15.3% [at 9.04 µM] | –
O=C(O)c1ccc(NC(=O)c2ccccc2NC(=O)c2cccc(F)c2)cc1 | inactive: 25.5% | –
COc1cc(-c2nnc(SCC(=O)NC3CCCC3)n2C)cc(OC)c1O | inactive: -0.462% | –
Cc1ccc(-c2noc(-c3nnn(CC(=O)Nc4cccc(C(F)(F)F)c4)c3N)n2)cc1 | – | active: 2.06 µM
CC(C)CC(=O)Nc1ccc(S(=O)(=O)Nc2nccs2)cc1 | inactive: -1.08% | –
C=CCn1c(C)cc(C(=O)COC(=O)C2CC(=O)N(Cc3ccccc3)C2)c1C (stereo unspecified) | – | inconclusive [inhibitor, single point]
CN(CC(=O)Nc1ccc(F)c(F)c1F)C(=O)c1ccc2c(c1)NC(=O)CS2 | – | inconclusive [inhibitor, single point]
